Source: PubChem BioAssay AID1345082 (National Center for Advancing Translational Sciences (NCATS), 2018)
In all, about 94,000 compounds went through this assay and about 4,000 (4.3%) were called active. The inconclusive results got no clear call from the source; some entries with a clear call stand among them for comparison. Calls follow the shape of the dose curve; as a rule, active = well fitted inhibition curve with a large enough effect; inconclusive = small, poorly fitted or top-dose-only effect; inactive = no such curve, though single readings can be large or run the other way. A potency beside an inconclusive call is a rough fit, not a confirmed value.

Assay: Cytotoxic Profiling in NIH 3T3 Cell Line of Diverse Libraries Using Quantitative High-Throughput Screening; also: nearly all actives have a fitted effect of over 55% in size
Conditions: NIH 3T3 viability, CellTiter-Glo ATP luminescence, 48-72 h; series mostly up to 96.7 µM
Outline: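 Viability of NIH 3T3 cells after 48 or 72 hr compound treatment at 37 °C was assessed by CellTiter-Glo, with luminescence imaged following a 10 min room-temperature step.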
Potency is read from the fitted curve at half-maximal effect; tags tell the direction and shape of the fitted curve.

Structure (SMILES) | Potency
CN(C)c1ncnc2sc3c(c12)CCN(S(=O)(=O)c1ccccc1)C3 | inconclusive: 50.1 µM [inhibitor, partial curve, poor fit]
c1ccc(Nc2cnc3ccc(-n4ccnc4)nn23)cc1 | inconclusive: 100 µM [inhibitor, partial curve]
COc1ccc(-c2nccn3cc(C(=O)NCc4nc5ccccc5n4C)nc23)cc1 | inconclusive: 4.47 µM [inhibitor, full curve, poor fit]
COc1ccc(NC(=O)N2Cc3[nH]cnc3C[C@H]2c2nc(-c3ccc(F)cc3)no2)cc1 | active: 50.1 µM
O=C1N(C2CCCCC2)C[C@H]2CN(Cc3cccc(Cl)c3)CCN12 | inconclusive: 79.4 µM [inhibitor, partial curve]
CC(C)CCN1CCC2(CN[S+](=O)([O-])c3ccccc3N2)C1 (stereo not given) | inactive
Cc1nnc2ccc(N3CCCN(C(=O)c4ccccc4)CC3)nn12 | inactive
CC1=C[C@@H](CN2CCN(c3ccccn3)CC2)[C@H](C(C)C)C[C@H]1Cc1nnc(C)o1 | inconclusive: 89.1 µM [inhibitor, partial curve, poor fit]
Cc1nn(CCC#N)c(C)c1[C@@H]1C=C[C@@H](NC(=O)Nc2ccccc2)C1 | inconclusive: 44.7 µM [inhibitor, partial curve, poor fit]
O=C(CCc1ccccc1)N1CCCc2ncc(C(=O)N3CCCC[C@@H]3Cc3ccccc3)cc21 | inactive
O=C(NCc1ccc(Cl)nc1)c1ccc2cncn2c1 | inconclusive: 89.1 µM [inhibitor, partial curve, poor fit]
Cc1cccc(-c2nocc2CCC(=O)NCc2cccs2)c1 | inactive
CC(C)OCC(=O)N1CCN(c2nc(-c3ccccc3)nc3c2CCC3)CC1 | inconclusive: 50.1 µM [inhibitor, partial curve, poor fit]
O=C(NCCCc1ccccc1)C1CCN(Cc2ccccc2-c2ccccc2F)CC1 | inconclusive: 15.8 µM [inhibitor, full curve, poor fit]
CCn1nccc1C(=O)N1CCC(F)(c2nc(-c3ccncc3)no2)CC1 | inconclusive: 39.8 µM [inhibitor, partial curve]
CC(C)(O)C#Cc1ccc(CN2CCCC(CCC(=O)Nc3ccccc3F)C2)s1 (stereo not given) | inconclusive: 44.7 µM [inhibitor, partial curve, poor fit]
CN1CCC(N(C)C(=O)CC2CCCN(c3cnn(C)c(=O)c3)C2)CC1 (stereo not given) | inactive
Cn1cc(-c2ccncc2)cc1C(=O)NCc1ccc(Cl)cc1 | inconclusive: 50.1 µM [inhibitor, partial curve, poor fit]
CCS(=O)(=O)N1CCCOCCNC(=O)[C@@H]2CCCC[C@@H]21 | inactive
Cc1nn(-c2ccccc2)c2c1C(C(C)C)N(C1CCCN(C(=O)C3CC3)C1)C2=O (stereo not given) | inconclusive: 44.7 µM [inhibitor, partial curve, poor fit]
COc1ccc(Cl)cc1S(=O)(=O)N1CCC(n2cnnc2C(C)C)CC1 | inactive
O=C(CCCN1C(=O)COc2ccc(C(=O)COc3ccc(F)cc3Cl)cc21)NCC1CC1 | inactive

Structure (SMILES) | Potency
CC(=O)Nc1ccc(CN2CCC[C@H]2c2nc(-c3ccnc(N4CCC(C(N)=O)CC4)c3)no2)cc1 | inactive
COc1ccc(S(=O)(=O)Nc2cnc3c(c2)CCC3)cc1 | inconclusive: 20 µM [inhibitor, partial curve, poor fit]
O=S(=O)(NCC1CN(CC2CC2)CC12CCCCC2)c1cccnc1 (stereo not given) | inconclusive: 31.6 µM [inhibitor, full curve]
Cn1c(CN(CCN2CCCCC2)CC2CCCN(C3CCCC3)C2)nc2ccccc21 (stereo not given) | inconclusive: 56.2 µM [inhibitor, partial curve, poor fit]
CN1CCN(c2cc(=O)c3ccnc(-c4ccccc4F)c3o2)CC1 | inconclusive: 3.16 µM [inhibitor, full curve, poor fit]
COc1ccccc1-c1ccnc(N[C@H]2CO[C@H]3[C@@H]2OC[C@@H]3NC(=O)NC2CCCCC2)n1 | inconclusive: 50.1 µM [inhibitor, partial curve, poor fit]
CCCC(=O)Nc1cccc(C(=O)NCCN2N=C(c3ccccc3)CCC2=O)c1 | inactive
Cc1ccc(S(=O)(=O)N2C[C@@H](F)C[C@H]2C(=O)N2CCc3ccccc3C2)cc1F | inconclusive: 39.8 µM [inhibitor, partial curve, poor fit]
Cc1ccc([S+](=O)([O-])N2CCC(C(=O)N3CCC(N4Cc5cccn5C4=O)CC3)CC2)cc1 | inconclusive: 44.7 µM [inhibitor, partial curve, poor fit]
Cc1ccc(C)c(Cn2c(=O)c(-c3noc(C)n3)c3n(c2=O)CCCCC3)c1 | inactive
O=C(NCCCc1ccccc1)C1CCN(c2nccc(Nc3ccccc3F)n2)CC1 | inconclusive: 25.1 µM [inhibitor, full curve, poor fit]
O=C(NCC1(COc2ccccc2)C[C@@H](O)[C@@H](O)C1)c1ccc(F)cc1 (stereo not given in full) | inconclusive: 89.1 µM [inhibitor, partial curve]
Cc1noc(-c2ccc(OC3CN(C(=O)CCc4ccccc4)C3)cc2)n1 | inconclusive: 39.8 µM [inhibitor, partial curve]
Cc1cnc(CC2CCCN(C(=O)c3ccncc3)C2)n1CC1CC1 (stereo not given) | inactive
CC(C)c1ccc(NC(=O)CN2C(=O)NC3(CCCCC3)C2=O)cc1 | inconclusive: 35.5 µM [inhibitor, partial curve]
COc1ccc(N2C(=O)CSC23CCN(C(=O)c2ccc(C)cc2)CC3)cc1 | inconclusive: 56.2 µM [inhibitor, partial curve, poor fit]
O=C(c1cccs1)N1CCCCCC1c1nc(C2CC2)no1 (stereo not given) | inconclusive: 50.1 µM [inhibitor, partial curve, poor fit]
CCC(C)C1=NS(=O)(=O)c2cc(NC(=O)c3ccco3)ccc2N1c1ccccc1 (stereo not given) | inactive
CC(C)(O)CCc1cccc(C(=O)NCc2ccc3c(c2)OCCCO3)c1 | inconclusive: 50.1 µM [inhibitor, partial curve]
CCn1nc(CC(C)C)cc1C(=O)N1CCN(c2nc(C)cc(C)n2)CC1 | inconclusive: 50.1 µM [inhibitor, partial curve, poor fit]
COCC1CN(C2CCC2)CC12CCN(C(=O)COc1cccc(C)c1)CC2 (stereo not given) | inconclusive: 35.5 µM [inhibitor, partial curve, poor fit]
Cc1cccc2c1O[C@H]1[C@H](CO)CN([S+](=O)([O-])Cc3ccccc3)[C@@H]21 | inconclusive: 50.1 µM [inhibitor, partial curve, poor fit]

Structure (SMILES) | Potency
Cc1ccccc1OCc1nc(C2CN(C(=O)c3ccc4ccccc4n3)C2)no1 | inconclusive: 50.1 µM [inhibitor, partial curve, poor fit]
c1nnc(CC2CCNCC2)n1CC1CC1 | inactive
COc1ccc(F)cc1-c1ccc(CN2CCC(NC(=O)C3CCCC3)C2)cc1 (stereo not given) | inconclusive: 44.7 µM [inhibitor, partial curve, poor fit]
COCc1ccc2c(c1)c(OC(C)(C)C(=O)NCCc1cnc[nH]1)nn2Cc1ccccc1 | inconclusive: 35.5 µM [inhibitor, partial curve, poor fit]
Clc1ccc(-c2nnc3n2CCN(Cc2cccnc2)C3)cc1 | inconclusive: 50.1 µM [inhibitor, partial curve, poor fit]
O=C(NCc1nc(-c2cccc(F)c2)c(-c2ccccn2)[nH]1)N1CCCC1 | inconclusive: 39.8 µM [inhibitor, full curve]
CCc1ccc(C(=O)N2CCC(Oc3nccnc3N(C)C)C2)cc1 (stereo not given) | inactive
Cc1ccc(-c2noc([C@@H]3C[C@H](NS(=O)(=O)Cc4ccccc4)CN3C)n2)cc1 | active: 79.4 µM
COc1cccc(CC(=O)N2CCC3(CC2)CC(O)CCO3)c1 (stereo not given) | inactive
O=C(N[C@H]1CCOC[C@H]1C1CCOCC1)c1ccc(-n2ccnc2)cc1 | inactive
O[C@H]1[C@H](NCc2ccc(-c3ccccc3)cc2)[C@H]2CO[C@H](O2)[C@@H]1Oc1ccccc1 | active: 112 µM
O=C(NCCCc1ccccc1)C1CCN(c2ccnc3ccnn23)CC1 | inconclusive: 39.8 µM [inhibitor, partial curve, poor fit]
COCc1ccc2c(c1)c(OC(C)(C)C(=O)NCc1ccncc1)nn2Cc1ccccc1 | active: 28.2 µM
COc1ccc(CN2CCC3(CC2)NC(=O)c2ccccc2O3)cc1 | inactive
CC(C)CCN1CCC(N2CCN(C(=O)C3CC3)CC2)C1=O (stereo not given) | inactive
CCc1ccc(C2CC(C(=O)NCc3ccc4c(c3)OCO4)CN(C(=O)c3ccc(F)cc3)C2)cc1 (stereo not given) | inconclusive: 22.4 µM [inhibitor, full curve]
O=C(NCc1cccs1)c1ccc2nnc(C3CCCC3)n2c1 | inconclusive: 44.7 µM [inhibitor, partial curve, poor fit]
Cc1cc(C)c(S(=O)(=O)NCCn2c(C)cnc2C2CC2)cc1C | inconclusive: 31.6 µM [inhibitor, partial curve, poor fit]
CSc1cccc(NC(=O)Cn2c(-c3cnccn3)nc(C)c(CCO)c2=O)c1 | inactive
COc1ccccc1C(=O)N1CCCN(c2cc(-c3ccc(Cl)cc3)[nH]n2)CC1 | inconclusive: 44.7 µM [inhibitor, partial curve, poor fit]
COc1ccc(-c2cn3cc(C(=O)NCc4cccc(OC)c4)nc3s2)cc1 | inconclusive: 50.1 µM [inhibitor, partial curve, poor fit]
